Results published in PubChem BioAssay AID1460 (National Center for Advancing Translational Sciences (NCATS), 2008).
Where “and” joins values, the source holds several entries; their conditions need not be identical. Equal values may be shown once. Hit rate of the full screen: of about 270,000 compounds, about 5,800 (2.1%) were called active. Inconclusive means that the source gave no clear call. Such entries were picked first, then a sample of the others. Calls come from the whole dose curve; as a rule, active = well fitted inhibition curve with a large enough effect; inconclusive = small, poorly fitted or top-dose-only effect; inactive = flat fitted curve, though single readings scatter. Where the call is inconclusive, the potency comes from a doubtful curve fit.

molecular target: Microtubule-associated protein tau (Homo sapiens) (UniProt P10636); assay: qHTS for Inhibitors of Tau Fibril Formation, Thioflavin T Binding; details: recombinant tau K18 P301L (four-repeat tau fragment), heparin-induced fibrillization, ThT fluorescence; series mostly up to 57.4 µM; note: nearly all actives have a fitted effect of over 55% in size
UniProt P10636, sequence (P10636 whole entry, looked up, the tested form may be a part): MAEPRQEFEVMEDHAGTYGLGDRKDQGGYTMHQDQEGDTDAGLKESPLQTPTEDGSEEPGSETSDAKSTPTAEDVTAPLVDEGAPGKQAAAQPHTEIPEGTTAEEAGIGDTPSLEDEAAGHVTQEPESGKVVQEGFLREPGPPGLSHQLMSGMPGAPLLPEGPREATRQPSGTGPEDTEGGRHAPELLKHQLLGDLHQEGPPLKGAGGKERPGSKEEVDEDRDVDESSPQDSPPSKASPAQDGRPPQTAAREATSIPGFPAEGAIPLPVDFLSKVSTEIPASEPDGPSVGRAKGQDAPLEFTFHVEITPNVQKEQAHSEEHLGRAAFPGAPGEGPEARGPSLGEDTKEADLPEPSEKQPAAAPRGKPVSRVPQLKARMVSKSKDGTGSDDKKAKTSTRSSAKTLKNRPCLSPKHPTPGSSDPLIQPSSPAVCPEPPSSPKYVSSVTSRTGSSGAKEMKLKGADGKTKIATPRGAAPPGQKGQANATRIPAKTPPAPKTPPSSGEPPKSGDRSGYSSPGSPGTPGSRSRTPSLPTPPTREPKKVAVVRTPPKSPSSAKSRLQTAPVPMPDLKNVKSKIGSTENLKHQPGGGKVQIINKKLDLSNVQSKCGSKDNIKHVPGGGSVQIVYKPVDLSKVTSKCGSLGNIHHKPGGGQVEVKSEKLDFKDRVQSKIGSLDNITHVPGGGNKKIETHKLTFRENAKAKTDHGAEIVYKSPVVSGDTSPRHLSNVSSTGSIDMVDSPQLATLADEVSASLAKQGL
In short: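 Recombinant human tau K18 fragment […] carrying P301L, 15 uM unlabeled plus 0.24 uM Alexa 594-labeled, was fibrillized with 20 uM heparin in 100 mM sodium acetate pH 7 for 6 hr at 37 C; 30 uM ThT fluorescence read after 1 hr.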
Potency is the fitted concentration of half-maximal effect; tags give direction and shape of the fitted curve.

**Q.** For `O=C(O)c1cc([N+](=O)[O-])ccc1NCc1ccccc1`, which Potency is on record?
**A.** inconclusive: 5.01 µM [inhibitor, partial curve]

**Q.** `COc1ccccc1CNC(=O)C1CCN(c2nc3ccccc3o2)CC1` was tested. Which Potency did it give?
**A.** inconclusive: 20 µM [inhibitor, partial curve]

**Q.** `Cc1cc(/N=C/C=C2\N(C)c3ccccc3C2(C)C)n(CCC#N)n1` was tested. Which Potency did it give?
**A.** inconclusive: 15.8 µM [inhibitor, partial curve]

**Q.** Which Potency does the source give for `Cc1cc2c(cc1S(=O)(=O)N(CCN(C)C)Cc1ccco1)OCC(=O)N2` here?
**A.** inactive

**Q.** `OC[C@H]1O[C@@H](Oc2cc(O)cc(/C=C/c3ccc(O)cc3)c2)[C@H](O)[C@@H](O)[C@@H]1O` was tested. Which Potency did it give?
**A.** inconclusive: 39.8 µM [inhibitor, single point]

**Q.** Which Potency does the source give for `COc1ccc(CCNC(=O)c2ccc(-c3cccc([N+](=O)[O-])c3)o2)cc1OC` here?
**A.** inconclusive: 8.91 µM [inhibitor, partial curve]

**Q.** Which Potency does the source give for `Cc1nc(N2CCCC2)ncc1C(=O)Nc1ccc(F)cc1F` here?
**A.** inactive

**Q.** Which Potency does the source give for `COc1cc(/C=N/N=C2\CC3CCC2(C)C3(C)C)ccc1O` (stereo not drawn) here?
**A.** inactive

**Q.** Which Potency does the source give for `CC(C)(C)C1CCc2c(sc(NC(=O)c3cc(C4CC4)on3)c2C#N)C1` (stereo not drawn) here?
**A.** inconclusive: 25.1 µM [inhibitor, partial curve]

**Q.** Which Potency does the source give for `COc1ccc(OCC(=O)Nc2cccc(-c3nc4ccccc4s3)c2C)cc1` here?
**A.** inconclusive: 1.58 µM [inhibitor, full curve]

**Q.** How did the Potency turn out when `COc1cc(/C=N/NC(=O)c2nc(-c3ccccc3)n(-c3ccccc3)n2)ccc1O` was run?
**A.** inconclusive: 25.1 µM [inhibitor, single point]

**Q.** Which Potency does the source give for `C/C(=N\Nc1ccc([N+](=O)[O-])cc1)c1ccc2c(c1)OCO2` here?
**A.** inconclusive: 2.24 µM [inhibitor, full curve]

**Q.** How did the Potency turn out when `CCN(CC)c1ccc(/C=N/N2CCOCC2)c(O)c1` was run?
**A.** inconclusive: 5.62 µM [inhibitor, partial curve]

**Q.** `Fc1ccc(NC(=S)Nc2cccc3cnccc23)cc1` was tested. Which Potency did it give?
**A.** active: 7.94 µM

**Q.** How did the Potency turn out when `C[C@@]12CCC=C[C@H]1[C@H](c1ccc3ccccc3c1/C=C/c1ccccc1)N(Cc1ccccc1)C2=O` was run?
**A.** inconclusive: 2.24 µM [inhibitor, full curve, poor fit]

**Q.** `CC(C)CCn1cnc2c(sc3nc4c(cc32)CSC(C)(C)C4)c1=O` was tested. Which Potency did it give?
**A.** inactive

**Q.** How did the Potency turn out when `CN(Cc1ccccc1)S(=O)(=O)c1nnc(NC(=O)c2ccccc2)s1` was run?
**A.** inconclusive: 2.82 µM [inhibitor, full curve]

**Q.** With `CN1CCN(C(=O)/C(C#N)=C/c2ccc(F)cc2)CC1` as the compound, how does the Potency read?
**A.** inactive

**Q.** For `COc1ccc2c(c1)c1c(c(=O)n(-c3ccccc3)c(=O)n1CC(=O)Nc1ccc(C)c(C)c1)n2C`, which Potency is on record?
**A.** inactive

**Q.** For `CCCOP(=O)(c1ccc(N(C)C)cc1)C(Nc1ccccc1)c1ccc(N(C)C)cc1` (stereo not drawn), which Potency is on record?
**A.** inactive

**Q.** How did the Potency turn out when `Cc1ccc(C(O)CSc2nnc(-c3ccc4ccccc4c3)n2C)cc1` (stereo not drawn) was run?
**A.** inconclusive: 12.6 µM [inhibitor, partial curve]

**Q.** For `CN1/C(=C/C(=O)c2nc(S(C)(=O)=O)ncc2Cl)C(C)(C)c2ccccc21`, which Potency is on record?
**A.** active: 5.01 µM

**Q.** With `CCN1C(=O)/C(=C/C=C2\N(CC)c3cc(S(=O)(=O)N(C)C)ccc3N2c2ccccc2)SC1=S` as the compound, how does the Potency read?
**A.** inconclusive: 2.24 µM [inhibitor, full curve]

**Q.** Which Potency does the source give for `Cc1ccc2c(c1)cc1c(=O)n(CC(=O)N3CCCCC3)nc(C)n12` here?
**A.** inactive

**Q.** With `O=C(/C=C\c1ccccc1)Nc1ccc(NC(=O)c2ccco2)cc1` as the compound, how does the Potency read?
**A.** inconclusive: 28.2 µM [activator, single point]

**Q.** Which Potency does the source give for `CC(C)(C)CC(=O)NC1CC(=O)N(c2ccc3c(c2)OCCO3)C1` (stereo not drawn) here?
**A.** inconclusive: 25.1 µM [inhibitor, single point]

**Q.** With `CC/C(=N\OC(=O)c1ccc(OC(C)C)cc1)c1ccc(C)cc1` as the compound, how does the Potency read?
**A.** inconclusive: 15.8 µM [inhibitor, partial curve]

**Q.** How did the Potency turn out when `Cc1cccc(N2C(=O)CC(Sc3nnc(C)s3)C2=O)c1` (stereo not drawn) was run?
**A.** inconclusive: 28.2 µM [inhibitor, single point]

**Q.** How did the Potency turn out when `N#C/C(=C(/O)CSc1ccccn1)c1nc2ccccc2s1` was run?
**A.** inconclusive: 31.6 µM [inhibitor, partial curve]

**Q.** How did the Potency turn out when `Cc1ccc(-n2ncc3c(N4CCC(Cc5ccccc5)CC4)ncnc32)cc1` was run?
**A.** inconclusive: 20 µM [inhibitor, single point]

**Q.** For `Cc1c(Cl)cccc1NC(=O)Cn1cnc2nc3c(cc2c1=O)CCCC3`, which Potency is on record?
**A.** inactive

**Q.** How did the Potency turn out when `O=C(CCN1C(=O)c2ccccc2C1=O)N1CCN(Cc2ccccc2)CC1` was run?
**A.** inactive

**Q.** With `CCO/C(C)=C1\C(=O)N(CC)c2ccccc21` as the compound, how does the Potency read?
**A.** inactive

**Q.** For `COc1ccc(N2CC(C(=O)Nc3ccc(N4CCOCC4)cc3)CC2=O)cc1` (stereo not drawn), which Potency is on record?
**A.** inconclusive: 1.12 µM [inhibitor, full curve]

**Q.** For `CCOC(=O)C(=N/O)/C(C)=N/NC(=O)C(=O)Nc1cc(Cl)ccc1Cl`, which Potency is on record?
**A.** inconclusive: 12.6 µM [inhibitor, partial curve]

**Q.** `COc1ccc(NS(=O)(=O)c2cc(NC(=O)/C=C/c3cc(OC)c(OC)c(OC)c3)ccc2N2CCCCC2)cc1` was tested. Which Potency did it give?
**A.** inactive

**Q.** With `CC(C)(C)N(CC#CCC(O)(c1ccccc1)c1ccccc1)CCO` as the compound, how does the Potency read?
**A.** inactive

**Q.** How did the Potency turn out when `Cc1ccc(CN2CCc3nc(N4CCN(C)CC4)ncc3C2)s1` was run?
**A.** inactive

**Q.** How did the Potency turn out when `CC(=O)c1ccc(-n2nnnc2SCC(=O)Nc2cccc(NC(=O)c3ccco3)c2)cc1` was run?
**A.** inconclusive: 22.4 µM [inhibitor, partial curve]

**Q.** With `Cc1ccc(N=Nc2c(N)nn(-c3ccccc3)c2N)cc1` as the compound, how does the Potency read?
**A.** active: 4.47 µM

**Q.** Which Potency does the source give for `O=C1/C(=C/c2ccccn2)SC(=S)N1N1CCOCC1` here?
**A.** inconclusive: 12.6 µM [inhibitor, single point]

**Q.** Which Potency does the source give for `O=C(N/N=C/c1ccc2ccccc2c1)c1ccc(COc2ccc3c(c2)CCC3)o1` here?
**A.** inconclusive: 3.55 µM [inhibitor, full curve]

**Q.** How did the Potency turn out when `COc1ccc(NC(=S)N(CCCN2CCOCC2)Cc2cn(C)c3ccccc23)cc1` was run?
**A.** inactive

**Q.** `Cc1ccc(/C([O-])=C(/C(=S)NCc2ccco2)[n+]2ccccc2)cc1[N+](=O)[O-]` was tested. Which Potency did it give?
**A.** inconclusive: 12.6 µM [inhibitor, partial curve]

**Q.** For `COC(=O)CCn1cnc2onc(-c3cc(F)cc(F)c3)c2c1=O`, which Potency is on record?
**A.** inactive

**Q.** How did the Potency turn out when `Cc1ccc(C)c(CS(=O)(=O)c2cn(CC(=O)N(C(C)C)C(C)C)c3ccccc23)c1` was run?
**A.** inactive

**Q.** Which Potency does the source give for `CC(C)Sc1ncc(Cl)c(C(=O)Nc2ccc(S(=O)(=O)N(C)c3ccccc3)cc2)n1` here?
**A.** inconclusive: 3.55 µM [inhibitor, single point]

**Q.** With `CC(/C=C/c1cccc(Oc2ccc(F)cc2)c1)N(O)C(N)=O` (stereo not drawn) as the compound, how does the Potency read?
**A.** inconclusive: 10 µM [inhibitor, partial curve]

**Q.** With `COc1ccc2[nH]c(C)c(CCN(Cc3cccs3)C(=S)Nc3ccccc3OC)c2c1` as the compound, how does the Potency read?
**A.** inconclusive: 14.1 µM [inhibitor, partial curve]

**Q.** How did the Potency turn out when `Cc1c(C(=O)N/N=C/c2ccc(Cl)cc2)[nH]c2ccc(Cl)cc12` was run?
**A.** inconclusive: 39.8 µM [activator, single point]

**Q.** For `O=c1c(O)c(-c2ccc(O)cc2O)oc2cc(O)cc(O)c12`, which Potency is on record?
**A.** active: 15.8 µM and active: 12.6 µM

**Q.** Which Potency does the source give for `Nc1ccc(-c2nnc(-c3ccc(-c4ccccc4)cc3)o2)cc1` here?
**A.** inconclusive: 0.398 µM [inhibitor, full curve, poor fit]

**Q.** With `CCn1c(SCC(=O)Nc2ccc(-c3nc4ccc(C)cc4s3)cc2)nnc1-c1ccccc1` as the compound, how does the Potency read?
**A.** inconclusive: 4.47 µM [inhibitor, full curve, poor fit]

**Q.** Which Potency does the source give for `Cc1cccc(C)c1NC(=O)Nc1cccs1` here?
**A.** inconclusive: 28.2 µM [inhibitor, partial curve]

**Q.** Which Potency does the source give for `C=CCN1C=C2C(=O)C(C)(OC(=O)CCc3ccccc3)C(=O)C=C2C=C1c1ccc(C#N)cc1` (stereo not drawn) here?
**A.** inconclusive: 11.2 µM [inhibitor, partial curve] and inconclusive: 8.91 µM [inhibitor, single point]

**Q.** For `COc1ccc(NC2=C(Cl)C(=O)N(c3ccccc3)C2=O)c(OC)c1`, which Potency is on record?
**A.** inconclusive: 31.6 µM [inhibitor, partial curve]

**Q.** `CCc1ccc(NC(=O)c2cc(-c3ccc(OC)cc3)on2)cc1` was tested. Which Potency did it give?
**A.** inconclusive: 1.26 µM [inhibitor, full curve]

**Q.** With `C=CCn1c(SCc2cc(C(=O)OC)c(C)o2)nnc1-c1ccncc1` as the compound, how does the Potency read?
**A.** inconclusive: 17.8 µM [inhibitor, single point]

**Q.** `CCOc1ccc(OCC)c(NC(=O)c2nnn(CC(=O)Nc3cc(Cl)ccc3OC)c2N)c1` was tested. Which Potency did it give?
**A.** inactive

**Q.** With `O=C(N1CCN(c2ccccn2)CC1)N1c2ccccc2Sc2ccccc21` as the compound, how does the Potency read?
**A.** inactive

**Q.** With `CCOC(=O)c1cc(-c2ccccc2)n(CCC(=O)O)c1C` as the compound, how does the Potency read?
**A.** inactive

**Q.** `Clc1ccc(-n2ncc3c(N4CCCC4)ncnc32)cc1` was tested. Which Potency did it give?
**A.** inconclusive: 3.16 µM [inhibitor, partial curve]

**Q.** How did the Potency turn out when `COc1ccc(CNC(=O)C2CCCN(Cc3nc(-c4cccc(C)c4)oc3C)C2)cc1` (stereo not drawn) was run?
**A.** inactive

**Q.** For `COc1cccc(/C=N/Nc2snc(SC)c2C#N)c1O`, which Potency is on record?
**A.** inconclusive: 6.31 µM [inhibitor, partial curve]

**Q.** How did the Potency turn out when `CCC(=O)OC1=C(C(C)=O)N(Cc2ccccc2)S(=O)(=O)c2ccccc21` was run?
**A.** inconclusive: 25.1 µM [inhibitor, partial curve]

**Q.** Which Potency does the source give for `O=C(CCc1nc2ccccc2s1)OCC(=O)c1ccccc1` here?
**A.** inconclusive: 0.708 µM [inhibitor, full curve]

**Q.** For `O=[N+]([O-])c1cc(C=Nc2ccc3ccccc3c2)ccc1Br`, which Potency is on record?
**A.** inconclusive: 20 µM [inhibitor, partial curve]

**Q.** With `CCOC(=O)c1c(C)n(-c2ccc(C)cc2)c2ccc(OCC(O)CNCC3CCCO3)cc12` (stereo not drawn) as the compound, how does the Potency read?
**A.** inconclusive: 17.8 µM [inhibitor, partial curve]
